PubChem BioAssay AID485294 (National Center for Advancing Translational Sciences (NCATS), 2010)
Out of some 370,000 compounds screened, about 150 (0.041%) were called active. The inconclusive results got no clear call from the source; some entries with a clear call stand among them for comparison. Calls follow the shape of the dose curve; as a rule, active = well fitted inhibition curve with a large enough effect; inconclusive = small, poorly fitted or top-dose-only effect; inactive = flat fitted curve, though single readings scatter. Potencies of inconclusive entries are left out as doubtful fits.

The compounds below were run against Beta-lactamase (Escherichia coli (strain K12)) (UniProt P00811) (assay: qHTS Inhibitors of AmpC Beta-Lactamase (assay with detergent)). Conditions: AmpC hydrolysis of nitrocefin, absorbance 480 nm, 0.01% Triton; series mostly up to 114 µM.
Sequence of UniProt P00811 (P00811 whole entry, looked up): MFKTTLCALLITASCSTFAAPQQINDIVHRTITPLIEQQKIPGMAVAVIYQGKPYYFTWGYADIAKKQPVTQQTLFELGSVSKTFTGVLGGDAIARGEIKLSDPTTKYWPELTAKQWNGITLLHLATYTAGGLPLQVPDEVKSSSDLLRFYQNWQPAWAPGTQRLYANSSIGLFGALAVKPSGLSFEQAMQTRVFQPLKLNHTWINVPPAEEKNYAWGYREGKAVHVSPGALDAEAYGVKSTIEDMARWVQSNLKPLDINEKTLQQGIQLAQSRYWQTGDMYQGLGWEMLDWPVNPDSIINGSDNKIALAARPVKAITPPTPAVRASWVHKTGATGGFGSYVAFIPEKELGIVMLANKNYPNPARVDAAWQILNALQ
Summary of the method: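 20 mM phosphate pH 7.0 + 0.01% (detergent screen) or 0.0001% Triton X-100; 5.3 nM AmpC reagent; cpd preinc 15 min RT; nitrocefin (800 uM stock) to start; A480 q20 s × 4 min; Activity was normalised to no-enzyme and no-compound control wells.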
Also: nearly all actives have a fitted effect of over 25% in size.
Potency is read from the fitted curve at half-maximal effect; tags tell the direction and shape of the fitted curve.

Q: `O=C1CCCC2=C1C(c1ccc3c(c1)OCO3)c1c([nH]n(-c3ccccc3)c1=O)N2` (centres undefined) was tested. Which Potency did it give?
A: Its Potency is inconclusive [inhibitor, partial curve, poor fit].

Q: How did the Potency turn out when `CC(C)c1ccc(OCC(=O)N(Cc2cccs2)C2CCS(=O)(=O)C2)cc1` (centres undefined) was run?
A: The Potency was “inactive”.

Q: `COc1cccc(CN2CC(C(=O)NCCCc3ccncc3)CCC2=O)c1` (centres undefined) was tested. Which Potency did it give?
A: The Potency was “inactive”.

Q: For `COCCNC(=S)NC1CC2CCCC(C1)N2Cc1cccs1` (centres undefined), which Potency is on record?
A: Its Potency is inconclusive [inhibitor, full curve, poor fit].

Q: Which Potency does the source give for `Cc1cc(NCCCn2ccnc2)n2nc(C)c(-c3ccccc3)c2n1` here?
A: Its Potency is “inactive”.

Q: For `COCc1cc(=O)[nH]c(SCC(=O)Nc2ccccc2)n1`, which Potency is on record?
A: Its Potency is inconclusive [inhibitor, full curve, poor fit].

Q: With `O=C(Nc1cccc(S(=O)(=O)NC2=NCCC2)c1)c1cc(Cl)ccc1[N+](=O)[O-]` as the compound, how does the Potency read?
A: Its Potency is “inactive”.

Q: For `O=C(c1cccc(F)c1)N1CCC(O)(c2cccnc2)CC1`, which Potency is on record?
A: The Potency was inconclusive [inhibitor, full curve, poor fit].

Q: With `O=[N+]([O-])c1ccc(O)c(/C=N/NC(=S)Nc2ccc(Cl)cc2Cl)c1` as the compound, how does the Potency read?
A: The Potency was “inactive”.

Q: For `CCc1cc(CNC(=O)C2CCC(=O)N(CCc3ccc(OC)cc3)C2)on1` (centres undefined), which Potency is on record?
A: The Potency was inconclusive [inhibitor, full curve, poor fit].

Q: `CCOc1ccccc1CN1CCNC(=O)C1CC(=O)NCc1nc(C)cs1` (centres undefined) was tested. Which Potency did it give?
A: Its Potency is inconclusive [inhibitor, partial curve, poor fit].

Q: How did the Potency turn out when `CCOC(=O)c1[nH]c2ccc(OC)cc2c1NC(=O)N1CCOCC1` was run?
A: The Potency was inconclusive [inhibitor, partial curve].

Q: `O=C(c1ccc(COc2ccccc2)o1)N1CCN(S(=O)(=O)c2ccccc2Cl)CC1` was tested. Which Potency did it give?
A: Its Potency is inconclusive [inhibitor, single point].

Q: With `Cc1ccc(S(=O)(=O)NCCc2cn3ccsc3n2)c(C)c1` as the compound, how does the Potency read?
A: The Potency was “inactive”.

Q: Which Potency does the source give for `CCc1cc(=O)oc2cc(C)cc(OC(C)C(=O)NCc3cccnc3)c12` (centres undefined) here?
A: Its Potency is inconclusive [inhibitor, full curve, poor fit].

Q: How did the Potency turn out when `CC(C)(C)n1nc2c(c1NC(=O)Cc1ccccc1)CS(=O)(=O)C2` was run?
A: The Potency was inconclusive [inhibitor, partial curve].

Q: How did the Potency turn out when `CC(=O)Nc1c(F)c(F)c(F)c(F)c1F` was run?
A: The Potency was inconclusive [inhibitor, partial curve, poor fit].

Q: How did the Potency turn out when `CN1CCN(Cc2cc(COCc3ccccc3)c3cccnc3c2O)CC1` was run?
A: Its Potency is inconclusive [inhibitor, partial curve].

Q: With `CC1CCN(c2cc(=O)n(C3CCCCC3)c(=O)[nH]2)CC1` as the compound, how does the Potency read?
A: The Potency was inconclusive [inhibitor, full curve, poor fit].

Q: For `COc1ccc(C2=NN(C(=O)CSc3nc4ncc(Cl)cc4[nH]3)C(c3ccco3)C2)cc1` (centres undefined), which Potency is on record?
A: Its Potency is inconclusive [inhibitor, full curve, poor fit].

Q: How did the Potency turn out when `O=c1ccc2cc(S(=O)(=O)N3CCN(c4ccccc4)CC3)ccc2[nH]1` was run?
A: Its Potency is “inactive”.

Q: For `Cc1ccc(S(=O)(=O)Nc2ccccc2C(=O)N2CCCCCC2)cc1`, which Potency is on record?
A: Its Potency is inconclusive [inhibitor, partial curve, poor fit].

Q: `O=C(CC(=O)c1ccccc1)Nc1cc(C(F)(F)F)ccc1Cl` was tested. Which Potency did it give?
A: The Potency was “inactive”.

Q: Which Potency does the source give for `CN(C)C=NC(=O)c1cccn1-c1ncc(C(F)(F)F)cc1Cl` here?
A: The Potency was inconclusive [inhibitor, full curve].

Q: For `CCOc1ccccc1NC(=O)NC1(C(=O)N2CCOCC2)CCCCC1`, which Potency is on record?
A: Its Potency is inconclusive [inhibitor, full curve, poor fit].

Q: Which Potency does the source give for `Cc1c(C(=O)O)cccc1-n1c(C)cc(/C=C2\C(=O)NC(=O)N(c3ccc4c(c3)OCO4)C2=O)c1C` here?
A: The Potency was inconclusive [inhibitor, full curve].

Q: For `Cc1ccc(CNC(=O)COC(=O)CCCOc2ccc(Cl)cc2Cl)cc1`, which Potency is on record?
A: The Potency was “inactive”.

Q: `Clc1ccccc1/C=C/c1nc(-c2ccccn2)no1` was tested. Which Potency did it give?
A: Its Potency is “inactive”.

Q: With `O=C(Nc1ncc(Cc2ccccc2)s1)C1CCCO1` (centres undefined) as the compound, how does the Potency read?
A: The Potency was inconclusive [inhibitor, full curve, poor fit].

Q: `CC(=O)N1CCC(N(C(=O)Nc2ccc(F)cc2)C2CCCC2)CC1` was tested. Which Potency did it give?
A: The Potency was inconclusive [inhibitor, full curve].

Q: `Cc1[nH]nc2c1C(CCc1ccccc1)C(C#N)=C(N)O2` (centres undefined) was tested. Which Potency did it give?
A: The Potency was inconclusive [inhibitor, full curve, poor fit].

Q: With `CC1CCc2nc3ccc(S(=O)(=O)N4CCC(C(=O)NC5CCCC5)CC4)cc3c(C(=O)O)c2C1` (centres undefined) as the compound, how does the Potency read?
A: The Potency was inconclusive [inhibitor, full curve, poor fit].

Q: With `Nn1c(SCC(=O)NCCN2C(=O)CSC2=O)nnc1-c1ccc(OC(F)F)cc1` as the compound, how does the Potency read?
A: The Potency was inconclusive [inhibitor, full curve, poor fit].

Q: `C=CCc1ccc(OCc2ccc(C(=O)OC)o2)c(OC)c1` was tested. Which Potency did it give?
A: Its Potency is inconclusive [inhibitor, single point].

Q: Which Potency does the source give for `C=CCN(C(=O)Nc1ccccc1)C1CC(=O)N(c2ccc(OC)cc2)C1=O` (centres undefined) here?
A: The Potency was “inactive”.

Q: `Clc1cccc(N2CCNCC2)c1` was tested. Which Potency did it give?
A: The Potency was inconclusive [inhibitor, full curve, poor fit].

Q: Which Potency does the source give for `Cc1ccc(S(=O)(=O)Nc2ccc(SC(F)F)cc2)c(C)c1` here?
A: Its Potency is inconclusive [inhibitor, full curve, poor fit].

Q: Which Potency does the source give for `Cc1cccc2c1cnn2C(=O)Nc1ccccc1Cl` here?
A: Its Potency is “inactive”.

Q: With `O=C(NC(=S)NC1CCCc2ccccc21)c1ccc(F)cc1` (centres undefined) as the compound, how does the Potency read?
A: Its Potency is “inactive”.

Q: Which Potency does the source give for `C[C@@]12C(=O)N(Cc3ccc(Cl)cc3)CC(=O)N1[C@H]1c3ccccc3OC[C@@H]1[C@@H]2c1ccccc1` here?
A: The Potency was “inactive”.

Q: `CCOC(=O)CSc1ccc(-c2nc3cc(C)c(C)cc3[nH]2)cn1` was tested. Which Potency did it give?
A: The Potency was “inactive”.

Q: How did the Potency turn out when `Cn1c(SCc2ccc(C#N)cc2Cl)nc2ccccc21` was run?
A: Its Potency is “inactive”.

Q: `CCC(=O)N(Cc1cc(=O)[nH]c2ccccc12)C1CCCCC1` was tested. Which Potency did it give?
A: The Potency was inconclusive [inhibitor, full curve, poor fit].

Q: Which Potency does the source give for `COc1ccc2oc(C(=O)Nc3cccc(S(=O)(=O)N4CCOCC4)c3)c(C)c2c1` here?
A: The Potency was inconclusive [inhibitor, partial curve, poor fit].
